# In the BET-seq Pho4 binding data (Le et al. 2018):
# This is one part of the list. These are noisy estimates, calculated here from bound and input reads.
# Target: T1, Pho4 (S. cerevisiae) (UniProt P07270)
# T1 sequence: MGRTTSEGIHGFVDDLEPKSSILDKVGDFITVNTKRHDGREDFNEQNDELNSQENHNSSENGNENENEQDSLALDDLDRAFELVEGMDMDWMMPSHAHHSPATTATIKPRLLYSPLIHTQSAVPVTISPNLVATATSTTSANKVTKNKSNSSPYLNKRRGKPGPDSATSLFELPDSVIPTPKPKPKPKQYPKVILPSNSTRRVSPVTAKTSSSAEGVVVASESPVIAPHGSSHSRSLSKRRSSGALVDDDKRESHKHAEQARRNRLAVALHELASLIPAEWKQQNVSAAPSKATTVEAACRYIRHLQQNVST
# Experiment: relative binding free energy (BET-seq); higher = weaker binding
# Conditions: reference: library average
row,Sequence,relative binding free energy [kcal/mol]
1,CATGGCACGTGGCTGT,-0.24
2,ATAGTCACGTGTGTAG,0.06
3,GTAGGCACGTGGTATA,-0.06
4,AATTGCACGTGTTTAG,-0.02
5,GACATCACGTGCGGGG,0.31
6,TTATCCACGTGTTGAG,0.09
7,TGTTTCACGTGAGTTA,0.37
8,TTTTACACGTGAGCTT,0.24
9,ATAGTCACGTGGAGGT,0.09
10,CTATTCACGTGGGGGG,-0.01
11,AGATCCACGTGGGTGG,-0.08
12,GAGCGCACGTGTATGT,0
13,AAAATCACGTGTTAGG,0.14
14,TATTGCACGTGATAGG,-0.06
15,ATGGTCACGTGTAGTG,0.15
16,CGGTCCACGTGGGTAG,-0.13
17,CTGGCCACGTGGGGGT,-0.37
18,GGGATCACGTGGTTAC,0.27
19,GTTCGCACGTGAGAGG,0.16
20,TTAATCACGTGGTTGC,0.15
21,AGAGACACGTGGGGCG,-0.07

row,Sequence,relative binding free energy [kcal/mol]
1,TTTAGCACGTGGTTGA,-0.13
2,CTAGTCACGTGTGGCG,0.12
3,TAGCGCACGTGATGGG,0.06
4,GCTGGCACGTGCTTGG,-0.24
5,AGGGGCACGTGGACCG,-0.25
6,TGGGACACGTGGCCGG,-0.11
7,CATTGCACGTGAGGTG,0.23
8,GATATCACGTGGTCTT,0.13
9,TGTACCACGTGTTGTG,-0.11
10,GAGATCACGTGGAGTG,0.19
11,TAGCTCACGTGTAGTT,0.21
12,TTATACACGTGTAGGA,0.02
13,GAGGGCACGTGAGTAG,0.19
14,TGCGTCACGTGTGGTA,0.11
15,GGCTTCACGTGGGTGA,0.14
16,TCTGGCACGTGGGGCG,-0.2
17,TTGCTCACGTGTAAGT,0.3
18,TGTGGCACGTGTGGGT,-0.01
19,TAGTGCACGTGAGTCG,0.24
20,TGATGCACGTGAGTCA,0.17
21,GTAATCACGTGTGATT,0.12

row,Sequence,relative binding free energy [kcal/mol]
1,TTTGACACGTGGAATA,0.04
2,ATAGTCACGTGGTGCC,0.17
3,TGGGGCACGTGTCGGG,-0.14
4,ATTTGCACGTGGCTGT,-0.08
5,TATTTCACGTGTAATC,0.35
6,TTAAGCACGTGGGTGG,-0.19
7,TTTACCACGTGTTAAT,-0.04
8,AATCTCACGTGTTGTT,0.16
9,GTGGTCACGTGGTCAC,0.11
10,GGAGTCACGTGCGGGG,0.05
11,GGTATCACGTGTACTT,0.16
12,TTTTACACGTGATAAT,0.36
13,TGCGTCACGTGAGAGA,0.32
14,TATTCCACGTGTTTAA,0.05
15,TTATGCACGTGTGTAA,0
16,TGTCACACGTGGCTGG,-0.08
17,ATGTACACGTGCTTTT,-0.15
18,AGGGTCACGTGAGTGT,0.3
19,CGTTACACGTGGTGGC,0.12
20,TGGTTCACGTGGGCGA,0.1
21,CGGGGCACGTGCGTCG,-0.24
